Laboratory results reported in PubChem BioAssay AID686979 (National Center for Advancing Translational Sciences (NCATS), 2013).
The campaign covered roughly 420,000 compounds. About 50,000 (12%) were called active. Not shown: some 26% with an inconclusive outcome. Calls follow the shape of the dose curve; as a rule, active = well fitted inhibition curve with a large enough effect; inconclusive = small, poorly fitted or top-dose-only effect; inactive = flat fitted curve, though single readings scatter. The entries are a selection whose mix differs from that of the whole data set.

assay: qHTS for Inhibitors of human tyrosyl-DNA phosphodiesterase 1 (TDP1): qHTS in cells in presence of CPT; details: chicken DT40 Tdp1-/-;hTDP1 cells + 20 nM CPT, ATP luminescence, 48 h; series mostly up to 46.2 µM; activity change, negative = growth inhibition: at the top concentration; also: nearly all actives have a fitted effect of over 55% in size
In short: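 Cell growth measured by CellTiter-Glo luminescence after a minimum 48 h, 37 C compound exposure with 20 nM CPT in Tdp1-knockout DT40 cells stably expressing hTDP1, seeded 400/well; qHTS titration format.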
% is scaled to controls: 0 for no effect and ±100 for the full control effect; potency is read from the fitted curve at half-maximal effect.

SMILES	activity change, negative = growth inhibition	Potency
COc1ccc(OC)c(CNC(=O)C2CCN(S(=O)(=O)N3CCCCC3)CC2)c1	inactive: -1.98%	–
Cc1ccc(NC(=O)CSc2nc(C)c(Cc3ccccc3)c(=O)[nH]2)cc1	inactive: 0.736%	–
COC(=O)c1ccc(NC(=O)CCS(=O)(=O)c2ccc(Br)cc2)cc1	inactive: -13.5%	–
CC(C)(C)OC(=O)NC(CC(=O)OCc1ccccc1)C(=O)O (stereo unspecified)	inactive: -11.4%	–
O=C1CN(C(=O)CNC(=O)c2ccccc2Cl)c2ccccc2N1	inactive: 24.1%	–
Nc1cc(=O)[nH]c(N)n1	–	inactive
COc1ccc(NC(=O)C2CCN(C(=O)Cc3ccccc3)CC2)c(OC)c1	inactive: 45.7%	–
COc1cc(/C=N\NC(=O)c2ccccc2F)ccc1Oc1ccc([N+](=O)[O-])cn1	–	active: 4.61 µM
O=S1(=O)CCOC[C@H](Cc2ccccc2)N1Cc1ccccc1Br	inactive: -0.698%	–
CNC(=O)C(=O)NCC1OCCCN1S(=O)(=O)c1ccc2c(c1)OCCO2 (stereo unspecified)	inactive: 34%	–
CC(C)N1CCN(Cc2cc(F)ccc2-n2cccn2)CC1CCO (stereo unspecified)	inactive: 43.4%	–
N#C/C(=C/c1ccc(-c2cccc([N+](=O)[O-])c2)o1)C(=O)Nc1nc(-c2cccs2)cs1	inactive: -21.2%	–
Cc1cccc(N2CCN(C(=O)c3ccccc3OCc3c(C)noc3C)CC2)c1C	–	active: 18.4 µM
CC(=O)NC1CC2CCCC(C1)N2C(=O)Nc1cccc(Cl)c1 (stereo unspecified)	inactive: 30.6%	–
Nc1c(N(Cc2ccco2)C(=O)COc2ccccc2)c(=O)[nH]c(=O)n1Cc1ccccc1	inactive: 12%	–
O=C1NS(=O)(=O)c2ccccc21	inactive: -18.6%	–
Cc1ccc(S(=O)(=O)NC(=O)N(C)C2CCCCC2)cc1	inactive: 39.4%	–
CC(C)(C)c1cc(NC(=O)COC(=O)C2CC2)n(-c2ccccc2)n1	inactive: -5.02%	–
Cc1cccc(-c2nc(C)cc(=O)[nH]2)c1	inactive: 34%	–
CC1CCCCN1C(=O)Cn1cnc2cc([N+](=O)[O-])ccc2c1=O (stereo unspecified)	–	active: 14.6 µM
OCC[C@@H]1C[C@@H](O)[C@H](O)[C@]2(Cc3ccccc3O2)O1	inactive: -6.27%	–
CCCCCC(=O)N1C[C@H](O)[C@@H](n2cc(COC(=O)c3ccccc3)nn2)C[C@@H]1c1ccccc1	inactive: -22.4%	–
CCOC(=O)[C@H](CCc1ccccc1)N[C@@H](C)C(=O)N1C(C(=O)O)C[C@@H]2CCC[C@@H]21 (stereo partly specified)	inactive: 0.0051%	–
CCN(CC)c1ccc(NC(=O)c2cnn(-c3ccccc3)c2-n2cccc2)c(C)c1	–	active: 14.6 µM

SMILES	activity change, negative = growth inhibition	Potency
COc1ccc(-c2nc(CS(=O)(=O)CC(=O)NCc3ccccc3Br)c(C)o2)cc1	inactive: -1%	–
CCOc1ccc(NC(=O)c2sc3nc4n(c(=O)c3c2C)CCC4)cc1	inactive: -6.12%	–
Cc1ccc(N(CC(=O)N/N=C/c2ccc(OCC(N)=O)cc2)S(C)(=O)=O)cc1Cl	inactive: 32.1%	–
O=C(N/C(=C/c1ccc(Br)cc1)C(=O)N1CCCC1)c1cccs1	inactive: -0.234%	–
C[C@@H]1CN([C@H](C)CO)C(=O)Cc2cc(NC(=O)Cn3cnnn3)ccc2O[C@@H]1CN(C)Cc1ccc(Cl)c(Cl)c1	–	active: 18.4 µM
CCn1c(SCC#N)nc2ccccc2c1=O	inactive: 6.23%	–
COc1ccc(NC(=O)CSc2nc3ccccc3nc2N2CCOCC2)c(OC)c1	inactive: -23.7%	–
Cc1cccc(CNC(=O)c2ccc3c(c2)N(C)CCS3)c1	inactive: -23.7%	–
O=C(CCCN1CCN(c2ccccn2)CC1)c1ccc(F)cc1	–	inactive
Cc1cc(C)c(S(=O)(=O)c2ccccc2C)c(OCCO)n1	inactive: 30.2%	–
CC1CCN(CC(C)OC(=O)c2ccco2)CC1 (stereo unspecified)	inactive: 23.3%	–
N#CC1=C(N)OC2=C(C(=O)CCC2)C1c1ccoc1 (stereo unspecified)	inactive: 0.278%	–
CCOC(=O)c1c(C)[nH]c(N=Nc2cc(C(=O)O)cc(C(=O)O)c2)c1C	inactive: 30.4%	–
O=C(COC(=O)c1ccc(CO)cc1)c1ccc(S(=O)(=O)N2CCCCC2)cc1	inactive: -14.7%	–
CCO[C@H]1OC(C(=O)NCc2ccccc2)=C[C@@H](c2ccccc2)[C@@H]1CCCO	inactive: -24.9%	–
O=C(CNC(=O)c1ccccc1)OC(C(=O)Nc1cc(C(F)(F)F)ccc1Cl)c1ccccc1 (stereo unspecified)	inactive: -17.8%	–
CC(=O)c1ccc(NC(=O)C2=CC(c3ccc4c(c3)OCO4)=NS(=O)(=O)N2C)cc1	inactive: -23.5%	–
COc1ccc(OC)c(NC(=O)c2cc(-c3c(C)cc(C)cc3O)n[nH]2)c1	inactive: 0.31%	–
COc1ccccc1Nc1cc(C(=O)NC2CCCC2)c2ccccc2n1	inactive: -23.6%	–
COC(=O)C[C@H]1C[C@@H]2c3cc(NS(=O)(=O)c4ccc(OC)cc4)ccc3O[C@@H]2[C@H](CO)O1	inactive: 6.86%	–
COc1ccccc1NC(=O)NCCN1CCN(c2cccc(Cl)c2)CC1	inactive: -26.9%	–
Cn1c(=S)c2[nH]c(SCCN)nc2n(C)c1=O	–	active: 5.8 µM
COc1ccc2[nH]c3c(C)c4cc[n+](C)cc4c(C)c3c2c1	–	active: 0.259 µM
CC(=O)Nc1nc2ccccc2n1Cc1ccccc1Cl	–	active: 20.6 µM

SMILES	activity change, negative = growth inhibition	Potency
C[C@@H]1CN([C@H](C)CO)C(=O)CCCn2cc(nn2)CO[C@H]1CN(C)C(=O)c1cc(-c2ccccc2)on1	inactive: 2.09%	–
CCCn1c(SCC(=O)c2cc(C)n(-c3ccc4c(c3)OCO4)c2C)n[nH]c1=O	–	active: 23.1 µM
COc1ccccc1NC(=O)Cn1nnc(C(=O)NCc2ccc3c(c2)OCO3)c1N	inactive: -22.9%	–
COCCCCC(=NOCCN)c1ccc(C(F)(F)F)cc1	–	active: 13.3 µM
Cc1ccc(NC(=O)c2cc(-c3cccs3)on2)cc1C	inactive: -9.6%	–
Cc1ccc2c(c1)CC1(CN2C)C(=O)OC(C)(C)OC1=O	inactive: -14.9%	–
CCn1nc(C)c(Br)c1C(=O)Sc1ccccc1Cl	–	active: 3.66 µM
COCCN(C(=O)c1snc(C(N)=O)c1N)C(C(=O)NC1CCCC1)c1cc(OC)c(OC)c(OC)c1 (stereo unspecified)	inactive: 2.35%	–
c1ccc(-c2cc(CSc3nc4ccccc4[nH]3)on2)cc1	–	active: 11.6 µM
CC12CCC(=O)C=C1CCC1C2CCC2(C)C1CC[C@]2(O)C(=O)CO (stereo partly specified)	inactive: -24.5%	–
O=C(COC(=O)c1n[nH]c(=O)c2ccccc12)c1ccccc1	inactive: -3.68%	–
CCN(CC)CCOC(=O)C1(C2CCCCC2)CCCCC1	inactive: -8.11%	–
O=c1c2cc(-c3ccccc3)sc2nc2n1N=C(c1cccs1)CS2	–	active: 16.4 µM
CCCCCCCCCCCCCCCC(=O)OC/C=C(C)/C=C/C=C(C)/C=C/C1=C(C)CCCC1(C)C	–	inactive
CC(=O)OCC(=O)[C@@]1(O)CC[C@H]2[C@@H]3CCC4=CC(=O)CC[C@]4(C)[C@H]3[C@@H](O)C[C@@]21C	inactive: -20.8%	–
O=S(=O)(NCCc1ccccc1)c1ccc(Cl)nc1	inactive: 32.2%	–
Cc1ccc(Cc2c(-c3ccco3)nc3c4ccccc4ccn23)cc1	–	active: 18.4 µM
CC1(C)CC(=O)C(C(C2=C(O)CC(C)(C)CC2=O)c2ccc(Cl)c([N+](=O)[O-])c2)C(=O)C1 (stereo unspecified)	inactive: 32.3%	–
Cc1cccc(N=Nc2cn[nH]c2-c2ccco2)c1	inactive: 33.3%	–
CCC(C)(C)n1nnnc1C(c1ccc(O)c(OC)c1)N1CCc2ccccc2C1 (stereo unspecified)	–	active: 7.31 µM
C=CCOC(=O)/C(=C\c1cccc2ccccc12)NC(=O)c1ccccc1	inactive: -24.9%	–
Cc1ccccc1-c1nc(CN2CCCC2c2ccc(F)cc2)c(C)o1 (stereo unspecified)	–	active: 20.6 µM
COc1cc(OC)cc(C(=O)N2CCCc3ccccc32)c1	–	active: 16.4 µM
OC(CCN1CCCCC1)(c1ccccc1)C1C[C@@H]2C=C[C@H]1C2 (stereo partly specified)	inactive: -25.6%	–

SMILES	activity change, negative = growth inhibition	Potency
COC(=O)c1ccc(NC(=O)C[n+]2ccccc2)cc1	inactive: 34.9%	–
O=C1[C@H]2[C@@H](c3ccc(C(F)(F)F)cc3)N[C@]3(CCCN(Cc4ccc(Cl)cc4)C3=O)[C@H]2C(=O)N1Cc1ccccc1	–	active: 16.4 µM
Cc1ccc(C(=O)N/C(=C/c2cccs2)C(=O)NCCc2c[nH]c3ccccc23)cc1	inactive: -15.9%	–
CCN1C(=O)N[C@@H](c2ccc(Br)cc2)C(C(C)=O)=C1C	inactive: 1.74%	–
CC(C)(C)[C@H]1C=C(C(=O)N2CCOCC2)O[C@@H](OCc2ccc(CO)cc2)C1	inactive: -19.8%	–
Clc1ccc(-n2cccc2)cn1	inactive: 12.5%	–
COc1ccc(/C=C(\C#N)C(=O)OCC(=O)NC(C)c2ccccc2)cc1 (stereo unspecified)	inactive: 33.3%	–
O=C(NCc1ccccn1)[C@@H]1C[C@H]1[C@@H](NP(=O)(c1ccccc1)c1ccccc1)c1ccccc1	inactive: -19.9%	–
C[C@H](CO)N1C[C@H](C)[C@@H](CN(C)C(=O)Nc2ccc(C(F)(F)F)cc2)Oc2ccc(NC(=O)NC3CCCCC3)cc2C1=O	inactive: -8.82%	–
Cc1ccc(NC(=S)c2nc3ccccc3[nH]2)cc1	–	active: 13 µM
COc1ccc(CNC(=O)CS(=O)Cc2nc(-c3ccc(OC)c(OC)c3)oc2C)cc1 (stereo unspecified)	inactive: -18.6%	–
Cc1ccc(C)c(NC(=O)CCOc2ccccc2)c1	inactive: 3.09%	–
COC(=O)[C@@]12CCCCN1[C@H](c1ccc(-c3cc(C(C)=O)cs3)c(OC)c1)[C@H]1C(=O)N(C)C(=O)[C@H]12	–	active: 4.11 µM
Cc1cc(C)n(-c2nc3c(c(=O)[nH]c(=O)n3C)n2CC(O)COc2ccc(Cl)cc2Cl)n1 (stereo unspecified)	–	active: 6.51 µM
N#CC[C@H](Cc1ccccc1)N1CCN(CCc2ccccc2)CCC1=O	inactive: 6.02%	–
CCOC(=O)c1sc(=S)n(CC)c1NC(=O)C1CC1	inactive: 31.1%	–
N#Cc1c2c(c(Nc3ccc(F)cc3)n3c1nc1ccccc13)CCCC2	–	active: 16.4 µM
Cc1cccc(N=Nc2c(C)c(C#N)c(O)[nH]c2=O)c1	inactive: 32.9%	–
CCOC(=O)N1CCN(c2cc(=O)n(-c3ccccc3C)c(=O)[nH]2)CC1	inactive: -5.95%	–
COc1ccc(-c2cc(C(F)(F)F)nc(S(=O)(=O)CCCC(=O)Nc3ccccc3C(F)(F)F)n2)cc1OC	–	active: 1.16 µM
CC(=O)Nc1ccc(S(=O)(=O)N2CCN(c3cc(C)ccc3C)CC2)cc1	–	active: 16.4 µM
COc1ccccc1N1CCN(C(=O)CCSCc2ccccc2F)CC1	inactive: 28%	–
COC(=O)c1cc(S(=O)(=O)NCC2CCN(Cc3ccc(F)cc3)CC2)cn1C	inactive: 6.38%	–
O=C(NN=Cc1ccc2c(c1)CCC2)c1ccccc1[N+](=O)[O-]	–	active: 23.1 µM
